According to PubChem BioAssay (NCATS):
Where “and” joins values, the source holds several entries; their conditions need not be identical. Equal entries are not always repeated. This is one part of the list. Further columns of the screen follow, without active or inactive calls. Most of these compounds were active or inconclusive in the main read-out, so they are no random draw. Words in brackets tell the shape of the fitted curve; partial curves, single points and poor fits give uncertain potencies.

assay: qHTS Assay for Lipid Storage Modulators (AID 1519); conditions: Drosophila S3 cells, BODIPY lipid droplet/cell ratio, laser cytometry; measured here: cell count channel max response; cells loaded with oleic acid
Method in brief: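 Cells seeded at 5,000 per well were treated with compounds over a concentration series and loaded with oleic acid (400 uM, as added). Lipid droplet fluorescence (488 nm excitation, 500-530 nm channel) was read by laser-scanning cytometry and normalized to 20 uM Triacsin C.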
Tags give direction and shape of the fitted curve.

Structure (SMILES) | max response
C[C@@H]1C[C@H]2[C@H]3C[C@@H](F)C4=CC(=O)C=C[C@]4(C)[C@@]3(Cl)[C@@H](O)C[C@@]2(C)[C@@H]1C(=O)COC(=O)C(C)(C)C | -17.4%
O=C(c1csnn1)N1CCC2(CC1)CCN(c1ccccn1)CC2 | 24.9%
CS(=O)(=O)N1CCC2(CCN(Cc3nccs3)CC2)CC1 | 20.7%
CS(=O)(=O)Nc1cccc(-c2nc(NCc3cccnc3)c3ccccc3n2)c1 | 18.4%
CCC(=O)OCC(=O)C1(OC(=O)CC)C(C)CC2C3CCC4=CC(=O)C=CC4(C)C3(Cl)C(O)CC21C (stereo unspecified) | 21.2%
COC(=O)CC1[C@@]2(C)C[C@@]34OC5(C)OC6(CC[C@@]7(C)C(c8ccoc8)OC(=O)C(C(C)=O)C7[C@]6(O5)C(O)[C@@]3(O)C2O)[C@]14C (stereo partly specified) | 23.6%
N[C@H]1CONC1=O | 44.4%
O=c1c(-c2cccc(Cl)c2)nc2cncnc2n1C1CC1 | 11.1%
COc1ccc(-c2c(O)c3c(OC)c4c(cc3oc2=O)OC(C)(C)CC4)cc1 | 27.3%
O=C(c1cccc(F)c1)N1CCC2(CCCN(Cc3nccs3)C2)CC1 | 23.1%
COC(=O)c1c(-c2cc(OC)c(OC)c(OC)c2)c2ccc(OCc3ccccn3)cc2c(=O)n1-c1ccc(N)cc1 | 48.3%
O=C(c1ccco1)N1CCC2(CC1)CN(c1cccc(-c3ccccc3)c1)C2 | 2.45%
N#Cc1cccc(NC(=O)N2CCC3(CC2)CCN(C(=O)c2cnccn2)CC3)c1 | 28%
COc1ccccc1CN1CC2(CCN(S(=O)(=O)c3ccccc3)CC2)C1 | 24.7%
CC(Oc1ccc(O)cc1)(P(=O)(O)O)P(=O)(O)O | 16.5%
O=C(c1cc(C(F)(F)F)cc(C(F)(F)F)c1)N1CCC[C@@]2(CCN(Cc3ccccc3)C2)C1 | 0.753%
CN(Cc1ccco1)c1cc(-c2cccc(C#N)c2)ncn1 | 26.9%
Cn1cc(-c2nc3cnc(N4CCOCC4)nc3n(CCC#N)c2=O)c2ccccc21 | 25.2%
COCCn1c(=O)c(-c2cccs2)nc2cnc(Oc3cccc(Cl)c3)nc21 | 25.6%
Cn1c(=O)c(-c2ccccc2)nc2cnc(N3CCOCC3)nc21 | 15.1%

Structure (SMILES) | max response
Cc1nc2cnc(N(C)C)nc2n(C)c1=O | 28%
C1COC(NC(C2CC2)C2CC2)=N1 | 23.3% and 49.3%
C#CCN(C)Cc1ccccc1 | 39.7%
C[C@H]1C[C@@H]2[C@H]3CCC4=CC(=O)C=C[C@@]4(C)[C@@]3(Cl)[C@@H](O)C[C@]2(C)[C@]1(OC(=O)c1ccco1)C(=O)CCl | 7.78%
C=CCCCCCCCCCCCC(O)CC(O)COC(C)=O (stereo unspecified) (tested in a mixture with another compound) | 12.7%
COc1ccc(-c2nc3cnc(N(C)C)nc3n(Cc3ccc(F)cc3)c2=O)cc1 | 29.3%
Cc1noc(C)c1-c1nc(N(C)C)c2ccccc2n1 | 5.78%
CC1(C)C(=O)C=C[C@@]2(C)C1C=C[C@@]1(C)C2CC[C@@]2(C)C(c3ccoc3)OC(=O)C3OC312 (stereo partly specified) | -25%
COc1ccc(Oc2ncc3nc(-c4ccc(F)cc4)c(=O)n(C[C@H]4CCCO4)c3n2)cc1 | -14.8%
COc1cccc(Nc2ncc3nc(CCc4ccccc4)c(=O)n(Cc4cccs4)c3n2)c1 | 38.1%
NC(N)=Nc1nc(CSCC/C(N)=N\S(N)(=O)=O)cs1 | 22.4%
Cc1noc(C)c1C(=O)N1CCC2(CCN(Cc3nccs3)CC2)CC1 | 23.7%
CC(=O)OC1CCC2(C)C(=CCC3C2CCC2(C)C3C[C@@H]3O[C@]32C(C)=O)C1 (stereo partly specified) | 22%
CN(C)C(=O)c1ccc(-c2nccc(NCc3cccs3)n2)cc1 | 10.8%
COc1cccc(Nc2ncc3ncc(=O)n(C4CC4)c3n2)c1 | 12.8%
O=S(=O)(c1ccccc1)N1CCC2(CCCN(C(c3ccccc3)c3ccccc3)C2)CC1 | 18.6%
Cc1nc2cnc(Nc3ccccc3)nc2n(CCc2ccccc2)c1=O | 23%
O=c1c(-c2ccc(F)cc2)nc2cnc(Oc3cccc(Cl)c3)nc2n1C[C@H]1CCCO1 | -6.17%
CC(=O)N1CCC2(CC1)CCN(c1ccc(-c3ccccc3)cc1)CC2 | -32.8%
CCOC(=O)C(CCc1ccccc1)NC(C)C(=O)N1Cc2ccccc2CC1C(=O)O (stereo unspecified) | 26%

same assay, conditions: Drosophila S3 cells, BODIPY lipid droplet/cell ratio, laser cytometry; measured here: cell number channel AC50; cells loaded with oleic acid

Structure (SMILES) | AC50
N[C@H]1CONC1=O | 39.8 µM [rising, single point]
COC(=O)c1c(-c2cc(OC)c(OC)c(OC)c2)c2ccc(OCc3ccccn3)cc2c(=O)n1-c1ccc(N)cc1 | 11.2 µM [rising, partial curve, poor fit]
COCCn1c(=O)c(-c2cccs2)nc2cnc(Oc3cccc(Cl)c3)nc21 | 0.891 µM [rising, full curve]
COc1cccc(Nc2ncc3nc(CCc4ccccc4)c(=O)n(Cc4cccs4)c3n2)c1 | 12.6 µM [rising, partial curve]
COc1cccc(Nc2ncc3ncc(=O)n(C4CC4)c3n2)c1 | 0.251 µM [rising, partial curve, poor fit]
CC(=O)N1CCC2(CC1)CCN(c1ccc(-c3ccccc3)cc1)CC2 | 39.8 µM [falling, single point]
